Experimental data: publication PMC9930429, “Wogonin attenuates the pathogenicity of Streptococcus pneumoniae by double‐target inhibition of Pneumolysin and Sortase A” (Journal of Cellular and Molecular Medicine, 2023)

Target: Sortase A (SrtA) (Streptococcus pneumoniae, UniProt Q8DPM3)
Test: FRET peptidase assay, fluorescent peptide substrate
Type: biochemical
Conditions: wogonin 16-128 μg/mL; 5 μM SrtA; 10 μM substrate; 37 °C, 60 min

## COc1c(O)cc(O)c2c(=O)cc(-c3ccccc3)oc12 [wogonin]
  SrtA peptidase activity (%): the SrtA peptidase activity decreased in a gradient (Figure 3A)
